Counter-ions that a name gives are not always drawn.
Tests used:
human serum albumin [1] = test: Suppression of methylglyoxal-induced cross linking of human serum albumin, by fluorescent intensity; type: biochemical
Protocol: For estimating the suppression effect on protein cross linking sensitively, glyoxal was used. This chemical is one of glucose degradation products and much greater promoter to accelerate AGE formation than glucose does. […] As a test specimen, mercapto compound, listed in Table 1, was added into the solution at 20 mM/l, then incubated at 37° C. as long as for two weeks. Fluorescent intensity (FI) of the cross linked albumin in the incubated solution was determined at 440 nm (excitation: at 370 nm) by fluorescence meter (Nihon Bunkou Co.). The suppression effect was estimated as follows; dividing the increase in the fluorescent intensity through the incubation in the case of “test specimen added”, by that of “no test specimen added (control 1) ”.
Sodium bisulfite and sodium sulfite were tested as protein cross linking suppressors.
(§1) The increase in fluorescent intensity was determined to estimate relative ratio to those of Control 2.
as §1, §1, §1
Each compound was dissolved at the concentration of 20 mM/l respectively in the mixture of dimethylsulfoxide and phosphate buffer solution at the ratio of 1:3. The increase in fluorescent intensity was determined to estimate relative ratio to those of Control 2.

human serum albumin [2] = target: human serum albumin (Homo sapiens, UniProt P02768); conditions: Table 5, Example 11
[3] = methylglyoxal, suppressor dissolved in dimethylsulfoxide : phosphate buffer solution 1:3, relative to Control 2 = 100
[4] = methylglyoxal in place of glyoxal, phosphate buffer solution, conditions as Example 1, relative to Control 2 = 100

Compound	Increase in FI (%) (human serum albumin [1]; [3])	Increase in FI (%) (human serum albumin [1]; [4])	further results
SC1=NCCS1 [2-Mercaptothiazoline]	48%	–	–
O=C1NC(C(=O)O)CS1 (stereo not shown) [2-Oxo-thiazolidine-4-carboxylic acid]	8%	–	–
CC(=O)Oc1ccccc1C(=O)O [Acetyl salicylic acid, reference compound]	–	53%	–
N=C(N)NN [Amino guanidine hydrochloride, reference compound]	–	31%	–
O=C(C[n+]1ccsc1)c1ccccc1.[Br-] [N-Phenacyl thiazolium bromide, reference compound]	–	–	Increase in FI (%) (human serum albumin [1]; methylglyoxal, suppressor 20 mM/l in methanol : phosphate buffer solution 1:1, relative to Control 2 = 100): 28%; Splitting of cross linkage in albumin formed by 3-deoxyglucosone (in words) (human serum albumin [2]): split
Heparin [reference compound]	–	96%	–
